These compounds were tested on MLKL phosphorylation, HT29-L23 human colorectal adenocarcinoma cells (assay: cells). Details: read-out: pMLKL HCS Cell Assay (IC50, uM).

Row | Structure (SMILES) | IC50
1 | COc1ncc(-c2cc(C(F)(F)F)c3c(N)ncnn23)cc1C(=O)N[C@@H]1CN(C(=O)C(N)(CC(C)C)C(F)(F)F)C[C@@H]1F (stereo partly drawn) [Example 1677, N-((3R,4S)-1-(2-amino-4-methyl-2-(trifluoromethyl)pentanoyl)-4-fluoropyrrolidin-3-yl)-5-(4-amino-5-(trifluoromethyl)pyrrolo[2,1-f][1,2,4]triazin-7-yl)-2-methoxynicotinamide] | 0.01 µM
2 | Nc1ncnn2c(-c3cccc(C(=O)N[C@@H]4CN(C(=O)c5ccc(F)cc5)C[C@@H]4F)c3)cc(CN3CC(F)(F)C3)c12 [Example 1173, 3-{4-amino-5-[(3,3-difluoroazetidin-1-yl)methyl]pyrrolo[2,1-f][1,2,4]triazin-7-yl}-N-[(3R,4S)-4-fluoro-1-(4-fluorobenzoyl)pyrrolidin-3-yl]benzamide] | 0.00095 µM
3 | Nc1ncnn2c(-c3cccc(C(=O)N[C@@H]4CN(C(=O)C5CCC(F)(F)C5)C[C@@H]4F)c3)cc(C(F)(F)F)c12 (stereo partly drawn) [Example 106, 3-[4-amino-5-(trifluoromethyl)pyrrolo[2,1-f][1,2,4]triazin-7-yl]-N-[(3R,4S)-1-(3,3-difluorocyclopentanecarbonyl)-4-fluoropyrrolidin-3-yl]benzamide] | 0.012 µM
4 | COc1ncc(-c2cc(C(F)(F)F)c3c(N)ncnn23)cc1C(=O)NC1CN(Cc2ccccc2C#N)CC1F (racemic) [Example 214, 5-[4-amino-5-(trifluoromethyl)pyrrolo[2,1-f][1,2,4]triazin-7-yl]-N-{1-[(2-cyanophenyl)methyl]-4-fluoropyrrolidin-3-yl}-2-methoxypyridine-3-carboxamide] | 0.026 µM
5 | Cc1cc(F)c(-c2cc(C(F)(F)F)c3c(N)ncnn23)cc1C(=O)N[C@@H]1CN(C(=O)C2CCC2)C[C@@H]1F [Example 791, 5-[4-amino-5-(trifluoromethyl)pyrrolo[2,1-f][1,2,4]triazin-7-yl]-N-[(3R,4S)-1-cyclobutanecarbonyl-4-fluoropyrrolidin-3-yl]-4-fluoro-2-methylbenzamide] | 0.004 µM
6 | COc1ncc(-c2cc(C(F)(F)F)c3c(N)ncnn23)cc1C(=O)N[C@@H]1CN(C(=O)O[C@@H](CO)CC2CC2)C[C@@H]1F [Example 1452, (2R)-1-cyclopropyl-3-hydroxypropan-2-yl (3R,4S)-3-{5-[4-amino-5-(trifluoromethyl)pyrrolo[2,1-f][1,2,4]triazin-7-yl]-2-methoxypyridine-3-amido}-4-fluoropyrrolidine-1-carboxylate] | 0.085 µM
7 | Cc1ccc(-c2cc(C(F)(F)F)c3c(N)ncnn23)cc1C(=O)N[C@@H]1CN(C(=O)[C@@](C)(O)C(F)(F)F)C[C@@H]1F [Example 993, 5-[4-amino-5-(trifluoromethyl)pyrrolo[2,1-f][1,2,4]triazin-7-yl]-N-[(3R,4S)-4-fluoro-1-[(2R)-3,3,3-trifluoro-2-hydroxy-2-methylpropanoyl]pyrrolidin-3-yl]-2-methylbenzamide] | 0.0014 µM
8 | COc1ncc(-c2cc(C(=O)N3CC(F)(F)C3)c3c(N)ncnn23)cc1C(=O)N[C@@H]1CN(C(=O)C2CC(F)(F)C2)C[C@@H]1F [Example 1350, 5-[4-amino-5-(3,3-difluoroazetidine-1-carbonyl)pyrrolo[2,1-f][1,2,4]triazin-7-yl]-N-[(3R,4S)-1-(3,3-difluorocyclobutanecarbonyl)-4-fluoropyrrolidin-3-yl]-2-methoxypyridine-3-carboxamide] | 0.22 µM
9 | Cc1cc(F)c(-c2cc(C(F)(F)F)c3c(N)ncnn23)cc1C(=O)N[C@@H]1CN(C(=O)c2ncccc2F)C[C@@H]1F [Example 817, 5-[4-amino-5-(trifluoromethyl)pyrrolo[2,1-f][1,2,4]triazin-7-yl]-4-fluoro-N-[(3R,4S)-4-fluoro-1-(3-fluoropyridine-2-carbonyl)pyrrolidin-3-yl]-2-methylbenzamide] | 0.022 µM
10 | COc1cc(F)c(-c2cc(C(F)(F)F)c3c(N)ncnn23)cc1C(=O)N[C@@H]1CN(C(=O)C(C)C(F)(F)F)C[C@@H]1F (stereo partly drawn) [Example 878, 5-[4-amino-5-(trifluoromethyl)pyrrolo[2,1-f][1,2,4]triazin-7-yl]-4-fluoro-N-[(3R,4S)-4-fluoro-1-(3,3,3-trifluoro-2-methylpropanoyl)pyrrolidin-3-yl]-2-methoxybenzamide] | 0.0089 µM
11 | COc1ncc(-c2cc(C(F)(F)F)c3c(N)ncnn23)cc1C(=O)NC1CN(C(C)c2ccncn2)C[C@@H]1F (single isomer, unassigned) [Example 453] | 0.023 µM
12 | Cc1ncc(-c2cc(C(F)(F)F)c3c(N)ncnn23)cc1C(=O)Nc1cn(Cc2ccc(C(F)(F)F)cc2)cn1 [Example 1805, 5-(4-amino-5-(trifluoromethyl)pyrrolo[2,1-f][1,2,4]triazin-7-yl)-2-methyl-N-(1-(4-(trifluoromethyl)benzyl)-1H-imidazol-4-yl)nicotinamide] | 0.002 µM
13 | COc1ncc(-c2cc(C(F)(F)F)c3c(N)ncnn23)cc1C(=O)N[C@@H]1CN(C2CCc3ncccc32)C[C@@H]1F (stereo partly drawn) [Example 1364, 5-[4-amino-5-(trifluoromethyl)-pyrrolo[2,1-f][1,2,4]triazin-7-yl]-N-[(3R,4S)-1-{5H,6H, 7H-cyclopenta[b]pyridin-5-yl}-4-fluoropyrrolidin-3-yl]-2-methoxypyridine-3-carboxamide] | 0.045 µM
14 | COc1ncc(-c2cc(CN3CCC3)c3c(N)ncnn23)cc1C(=O)N[C@@H]1CN(C(=O)[C@@](C)(O)C(F)(F)F)C[C@@H]1F [Example 1554, 5-{4-amino-5-[(azetidin-1-yl)methyl]pyrrolo[2,1-f][1,2,4]triazin-7-yl}-N-[(3R,4S)-4-fluoro-1-[(2R)-3,3,3-trifluoro-2-hydroxy-2-methylpropanoyl]pyrrolidin-3-yl]-2-methoxypyridine-3-carboxamide] | 0.0014 µM
15 | COc1ncc(-c2cc(C(F)(F)F)c3c(N)ncnn23)cc1C(=O)Nc1cnn(C(C)(C)C)c1 [Example 144, 5-[4-amino-5-(trifluoromethyl)pyrrolo[2,1-f][1,2,4]triazin-7-yl]-N-(1-tert-butyl-1H-pyrazol-4-yl)-2-methoxypyridine-3-carboxamide] | 0.162 µM
16 | Cc1ccc(-c2cc(C(F)(F)F)c3c(N)ncnn23)cc1C(=O)N[C@@H]1CN(C(=O)C(C)C(F)(F)F)C[C@@H]1F (stereo partly drawn) [Example 999, 5-[4-amino-5-(trifluoromethyl)pyrrolo[2,1-f][1,2,4]triazin-7-yl]-N-[(3R,4S)-4-fluoro-1-(3,3,3-trifluoro-2-methylpropanoyl)pyrrolidin-3-yl]-2-methylbenzamide] | 0.0032 µM
17 | CCc1ccc(-c2cc(C(F)(F)F)c3c(N)ncnn23)cc1C(=O)N[C@@H]1CN(C(=O)CC(C)(O)C(F)(F)F)C[C@@H]1F (stereo partly drawn) [Example 975, 5-[4-amino-5-(trifluoromethyl)pyrrolo[2,1-f][1,2,4]triazin-7-yl]-2-ethyl-N-[(3R,4S)-4-fluoro-1-(4,4,4-trifluoro-3-hydroxy-3-methylbutanoyl)pyrrolidin-3-yl]benzamide] | 0.0081 µM
18 | CCn1cncc1CN1CC(F)C(NC(=O)c2cc(-c3cc(C(F)(F)F)c4c(N)ncnn34)cnc2OC)C1 (racemic) [Example 220, 5-[4-amino-5-(trifluoromethyl)pyrrolo[2,1-f][1,2,4]triazin-7-yl]-N-{1-[(1-ethyl-1H-imidazol-5-yl)methyl]-4-fluoropyrrolidin-3-yl}-2-methoxypyridine-3-carboxamide] | 0.089 µM
19 | COc1ncc(-c2cc(CN3CCC(F)(F)CC3)c3c(N)ncnn23)cc1C(=O)N[C@@H]1CN(C(=O)OCC(F)F)C[C@@H]1F [Example 1499, 2,2-difluoroethyl (3R,4S)-3-(5-{4-amino-5-[(4,4-difluoropiperidin-1-yl)methyl]pyrrolo[2,1-f][1,2,4]triazin-7-yl}-2-methoxypyridine-3-amido)-4-fluoropyrrolidine-1-carboxylate] | 0.00077 µM
20 | Cc1c(F)cc(-c2cc(C(F)(F)F)c3c(N)ncnn23)cc1C(=O)N[C@@H]1CN(C(=O)CC(F)(F)F)C[C@@H]1F [Example 664, 5-[4-amino-5-(trifluoromethyl)pyrrolo[2,1-f][1,2,4]triazin-7-yl]-3-fluoro-N-[(3R,4S)-4-fluoro-1-(3,3,3-trifluoropropanoyl)pyrrolidin-3-yl]-2-methylbenzamide] | 0.01 µM
21 | COc1ncc(-c2cc(C(F)(F)F)c3c(N)ncnn23)cc1C(=O)N[C@@H]1CN(C(=O)c2ccccc2)C[C@@H]1C [Example 295, 5-[4-amino-5-(trifluoromethyl)pyrrolo[2,1-f][1,2,4]triazin-7-yl]-N-[(3S,4S)-1-benzoyl-4-methylpyrrolidin-3-yl]-2-methoxypyridine-3-carboxamide] | 0.065 µM
22 | COc1ncc(-c2cc(C(F)(F)F)c3c(N)ncnn23)cc1C(=O)N[C@H]1CCC[C@@H](c2ccccc2)C1 (racemic) [Example 1693, 5-(4-amino-5-(trifluoromethyl)pyrrolo[2,1-f][1,2,4]triazin-7-yl)-2-methoxy-N-((1SR,3RS)-3-phenylcyclohexyl)nicotinamide] | 0.004 µM
23 | Cc1cc(F)c(-c2cc(C(F)(F)F)c3c(N)ncnn23)cc1C(=O)N[C@@H]1CN(C(=O)c2ncc(Br)cc2F)C[C@@H]1F [Example 845, 5-[4-amino-5-(trifluoromethyl)pyrrolo[2,1-f][1,2,4]triazin-7-yl]-N-[(3R,4S)-1-(5-bromo-3-fluoropyridine-2-carbonyl)-4-fluoropyrrolidin-3-yl]-4-fluoro-2-methylbenzamide] | 0.036 µM
24 | Cc1ccc(-c2cc(C(F)(F)F)c3c(N)ncnn23)cc1C(=O)Nc1cnn(C(c2ccccc2)C(F)(F)F)c1 (stereo not shown) [Example 1815, 5-(4-amino-5-(trifluoromethyl)pyrrolo[2,1-f][1,2,4]triazin-7-yl)-2-methyl-N-(1-(2,2,2-trifluoro-1-phenylethyl)-1H-pyrazol-4-yl)benzamide] | 0.0029 µM
25 | COc1ncc(-c2cc(CN3CCC(F)(F)CC3)c3c(N)ncnn23)cc1C(=O)N[C@@H]1CN(C(=O)[C@@H]2CC2(F)F)C[C@@H]1F [Example 1559, 5-{4-amino-5-[(4,4-difluoropiperidin-1-yl)methyl]pyrrolo[2,1-f][1,2,4]triazin-7-yl}-N-[(3R,4S)-1-[(1S)-2,2-difluorocyclopropanecarbonyl]-4-fluoropyrrolidin-3-yl]-2-methoxypyridine-3-carboxamide] | 0.064 µM

Reference: patent publication US11618753B2 (priority 2018, dated 2023)
